This passage reports log2 surviving fraction results from the supplement of paper PMC8047034.

One experiment deals with OVCAR4. Briefly: log2 surviving fraction (library drug vs vehicle, or drug + carboplatin vs carboplatin alone; relative to plate median); ovarian cancer lines: OVCAR4 is platinum-sensitive and Ov4Carbo platinum-resistant; higher = more cell survival. The conditions noted are these: library drug concentration 10 µM, 7 days.
The test system of the next experiment is Ov4Carbo. The description is as above. The note with it: library drug concentration 10 µM, 7 days.

Structures can show the parent of a compound that is named as a salt. The list shows a part of the results. Most values come without repeats; read them as rough.

Regarding `O=C1O[C@H]([C@@H](O)CO)C([O-])=C1O.[Na+]` [Sodium ascorbate], the log2 surviving fraction in the experiment with OVCAR4 (carboplatin co-treatment 0 µM) was 0.478; in the experiment on OVCAR4 (carboplatin co-treatment 5 µM) it was 0.452; in the experiment with Ov4Carbo (carboplatin co-treatment 0 µM) it was 0.0987; in the experiment on Ov4Carbo (carboplatin co-treatment 5 µM) it was 0.804.
The matching figures for `c1cc(CN2CCCNCCNCCCNCC2)ccc1CN1CCCNCCNCCCNCC1` [Plerixafor (AMD3100)]: 0.203, -0.988, 0.2 and 1.23.
With `OC[C@@H](O)[C@@H](O)[C@H](O)[C@@H](O)CO` [Sorbitol (Glucitol)], the log2 surviving fraction stood at 0.249 in the experiment with OVCAR4 (carboplatin co-treatment 0 µM), 0.131 with OVCAR4 (carboplatin co-treatment 5 µM), 0.998 in the experiment on Ov4Carbo (carboplatin co-treatment 0 µM) and 0.959 with Ov4Carbo (carboplatin co-treatment 5 µM).
The matching figures for `CN(C)[C@@H]1C(O)=C(C(=O)NCN2CCCC2)C(=O)[C@@]2(O)C(O)=C3C(=O)c4c(O)cccc4[C@@](C)(O)[C@H]3C[C@@H]12` [Rolitetracycline]: -0.52, -4.51, -0.354 and 0.0729.
The matching figures for `CCCCOc1ccc(OCCCN2CCOCC2)cc1` [Pramoxine HCl]: -0.0955, -0.737, -0.412 and -0.0106.
The matching figures for `COc1c(C)c2c(c(O)c1C/C=C(\C)CCC(=O)OCCN1CCOCC1)C(=O)OC2` [Mycophenolate mofetil (CellCept)]: -4.53, -4.08, -6.18 and -4.65.
For the molecule `Nc1nnc(-c2cccc(Cl)c2Cl)c(N)n1` [Lamotrigine], the log2 surviving fraction is 0.481 with OVCAR4 (carboplatin co-treatment 0 µM), 0.00139 in the experiment on OVCAR4 (carboplatin co-treatment 5 µM), -0.575 in the experiment with Ov4Carbo (carboplatin co-treatment 0 µM) and -0.109 in the experiment with Ov4Carbo (carboplatin co-treatment 5 µM).
The matching figures for `CN1C2=CC(=O)/C(=N\NC(N)=O)C=C2CC1S(=O)(=O)O` (stereo not given) [Carbazochrome sodium sulfonate]: 0.802, 0.0715, -0.0695 and 0.0806.
The matching figures for `COc1ccc([C@H]2CNC(=O)C2)cc1OC1CCCC1` [S-(+)-Rolipram]: -0.259, -0.321, -0.406 and -1.15.
Consider `C/C=C(\C)C(=O)N[C@@H](c1ccccc1)[C@@H](O)C(=O)O[C@H]1C[C@@]2(O)[C@@H](OC(=O)c3ccccc3)[C@@H]3[C@]4(OC(C)=O)CO[C@@H]4C[C@H](O)[C@@]3(C)C(=O)[C@H](OC(C)=O)C(=C1C)C2(C)C` [Cephalomannine], for which the log2 surviving fraction in the experiment with OVCAR4 (carboplatin co-treatment 0 µM) is -7.47; with OVCAR4 (carboplatin co-treatment 5 µM), -5.48; in the experiment with Ov4Carbo (carboplatin co-treatment 0 µM) it was -6.59; with Ov4Carbo (carboplatin co-treatment 5 µM), -5.7.
